{"source": "PubChem BioAssay AID624417", "about": "(National Center for Advancing Translational Sciences (NCATS), 2012)", "note": "About 6,400 (1.6%) of roughly 410,000 compounds were called active. The shares of active, inactive and inconclusive entries below differ from those in the screen. Calls come from the whole dose curve; as a rule, active = well fitted inhibition curve with a large enough effect; inconclusive = small, poorly fitted or top-dose-only effect; inactive = no such curve, though single readings can be large or run the other way. No potency is given beside an inconclusive call; the fits are too rough. % is set by controls: 0 for no effect and ±100 for the full control effect; potency is the fitted concentration of half-maximal effect; tags give direction and shape of the fitted curve.", "data": [{"molecular_target": "Glucagon-like peptide 1 receptor (Homo sapiens) (UniProt P43220)", "sequence (P43220 whole entry, looked up)": "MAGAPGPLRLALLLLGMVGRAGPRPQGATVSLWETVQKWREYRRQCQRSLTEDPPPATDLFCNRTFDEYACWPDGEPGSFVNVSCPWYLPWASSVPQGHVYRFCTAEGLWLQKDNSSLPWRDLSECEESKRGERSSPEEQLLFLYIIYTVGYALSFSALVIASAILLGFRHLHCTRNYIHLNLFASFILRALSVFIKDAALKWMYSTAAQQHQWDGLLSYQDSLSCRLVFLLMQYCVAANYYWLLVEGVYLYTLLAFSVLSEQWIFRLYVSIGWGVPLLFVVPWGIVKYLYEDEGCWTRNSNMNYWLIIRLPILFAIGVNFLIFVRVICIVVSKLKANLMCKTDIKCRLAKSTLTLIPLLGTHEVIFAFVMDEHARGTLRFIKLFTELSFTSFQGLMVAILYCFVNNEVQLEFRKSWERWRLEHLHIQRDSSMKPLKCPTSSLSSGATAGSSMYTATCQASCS", "test": "qHTS of GLP-1 Receptor Inverse Agonists (Inhibition Mode); note: nearly all actives have a fitted effect of over 55% in size", "details": "HEK293 GLP-1R CRE-luciferase, luminescence, 24 h, GLP-1R form is constitutively active; activity change, negative = inhibition: at 38.3 µM (top of the series) unless noted", "in_short": "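Assay principle: reduced luminescence from a cAMP-responsive reporter in HEK293 cells co-expressing a constitutively active GLP-1R. Conditions: 24 hr compound incubation, 37 deg C, 5% CO2.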", "values": [{"smiles": "COc1ccccc1/C=C/C(=O)/C=C/c1ccccc1O", "Potency": "inconclusive [inhibitor, partial curve, poor fit]"}, {"smiles": "COc1ccc(NC(=O)C2(C)Cc3c(-c4ccc(N(C)C)cc4)ccnc3O2)cc1", "note": "(stereo not drawn)", "Potency": "inconclusive [inhibitor, single point]"}, {"smiles": "Cc1cc(C)c2cccc(N)c2n1", "Potency": "inconclusive [inhibitor, single point]"}, {"smiles": "Cc1ccc(NC(=O)CC2OC(=O)c3ccccc32)cc1S(=O)(=O)N1CCCCCC1", "note": "(stereo not drawn)", "Potency": "inconclusive [inhibitor, single point]"}, {"smiles": "Cc1cccc(C)c1NC(=O)C(Cl)=C(Cl)Cl", "Potency": "inconclusive [inhibitor, single point]"}, {"smiles": "Cc1ccc(CN2C(=O)SC(Nc3ccc(Cl)cc3)C2=O)cc1", "note": "(stereo not drawn)", "Potency": "inconclusive [inhibitor, single point]"}, {"smiles": "Cc1ccc(Cc2c(C)nc3nc(SCC(=O)NCCC(C)C)nn3c2C)cc1", "activity change, negative = inhibition": "inactive: 1.18%"}, {"smiles": "COc1ccc(OCc2cc(C(=O)NC(C)c3nc(C)cs3)no2)c(Cl)c1", "note": "(stereo not drawn)", "Potency": "inconclusive [inhibitor, single point]"}, {"smiles": "COC(=O)c1ccsc1NC(=O)CSc1nnnn1Cc1ccccc1", "Potency": "inconclusive [inhibitor, single point]"}, {"smiles": "O=C(CCN1CCN(S(=O)(=O)c2ccc(Cl)cc2)CC1)Nc1ccc(F)cc1", "Potency": "inconclusive [inhibitor, single point]"}, {"smiles": "CC1CCCCC12NC(=O)N(CC(=O)OCc1c(F)cccc1Cl)C2=O", "note": "(stereo not drawn)", "Potency": "inconclusive [inhibitor, single point]"}, {"smiles": "O=C(NCc1cccc(Cl)c1)c1ccc(NC(=O)N2CCSc3ccccc32)cc1", "activity change, negative = inhibition": "inactive: -25.3%"}, {"smiles": "COc1ccc(Cc2nc3ccccc3n2Cc2ccccc2C)cc1", "Potency": "inconclusive [inhibitor, full curve, poor fit]"}, {"smiles": "CCN1C(=NCc2ccc(OC)cc2)N[C@@H](CCc2ccccc2)[C@H](C(=O)NCc2ccc(OC)cc2)[C@H]1C", "Potency": "inconclusive [inhibitor, single point]"}, {"smiles": "Cc1ccc(NC(=O)Nc2cccc(F)c2)nc1", "activity change, negative = inhibition": "inactive: 15.8%"}, {"smiles": "CCCCN1C[C@H](Cc2ccccc2)[C@@H](CC(=O)Nc2ccccc2)C1=O", "Potency": "inconclusive [inhibitor, single point]"}, {"smiles": "CC(c1ccon1)N(C)Cc1cn(Cc2ccccc2)nc1-c1ccc2c(c1)OCO2", "note": "(stereo not drawn)", "Potency": "inconclusive [inhibitor, partial curve, poor fit]"}, {"smiles": "CCOC(=O)C1CCCCN1Cc1cccc(Oc2ccccc2)c1", "note": "(stereo not drawn)", "Potency": "inconclusive [inhibitor, single point]"}, {"smiles": "O=C(COC(=O)c1ccc([N+](=O)[O-])o1)NCCCc1ccccc1", "activity change, negative = inhibition": "inactive: -5.61%"}, {"smiles": "COc1ccc(N2CCN(C(=O)c3cn(CC4CCCCC4)nn3)CC2)cc1", "Potency": "inconclusive [inhibitor, single point]"}, {"smiles": "CN(C)c1nc(SCc2ccc(Cl)cc2)nc2c1CCCC2", "Potency": "inconclusive [inhibitor, partial curve, poor fit]"}, {"smiles": "NC(=O)CCN1CCN(CCOC2Cc3cc(Cl)ccc3Sc3ccccc32)CC1", "note": "(stereo not drawn)", "Potency": "inconclusive [inhibitor, partial curve, poor fit]"}, {"smiles": "CCCc1c(-c2cccc(F)c2)ncn1CCc1ccccc1OC", "Potency": "inconclusive [inhibitor, single point]"}, {"smiles": "CC(C)N(Cc1nc(-c2ccc(Cl)cc2)no1)C(=O)C(c1ccccc1)c1ccccc1", "Potency": "inconclusive [inhibitor, single point]"}, {"smiles": "CCOC(=O)C1=C(CNCc2ccccc2Cl)NC(=O)NC1c1ccc2c(c1)OCO2", "note": "(stereo not drawn)", "Potency": "inconclusive [inhibitor, partial curve]"}, {"smiles": "C#CCOCCOCCOCCNc1nc(N2CCN(C(=O)CCCCCCCCCCNC(=O)[C@H]([C@@H](C)CC)n3cc(CCCCN=C(N)N)nn3)CC2)nc(N2CCN(C(=O)CCCCCCCCCCNC(=O)[C@H](CCCCN)n3cc(C)nn3)CC2)n1", "Potency": "inconclusive [inhibitor, single point]"}, {"smiles": "CCc1cc(=O)oc2cc(O[C@@H]3O[C@H](CO)[C@@H](O)[C@H](O)[C@H]3O)c(Cl)cc12", "activity change, negative = inhibition": "inactive: 7.27%"}, {"smiles": "CC(NCC(=O)Nc1cc(S(=O)(=O)N2CCCCCC2)ccc1Cl)c1ccccc1", "note": "(stereo not drawn)", "Potency": "inconclusive [inhibitor, partial curve, poor fit]"}, {"smiles": "O=C(Nc1cccc(-c2csc(Nc3ccc(Cl)cc3)n2)c1)c1cc([N+](=O)[O-])cc(C(F)(F)F)c1", "Potency": "inconclusive [inhibitor, full curve, poor fit]"}, {"smiles": "Oc1cccc2c(NC(=S)Nc3ccc(OC(F)F)cc3)cccc12", "Potency": "inconclusive [inhibitor, partial curve, poor fit]"}, {"smiles": "C=CCOc1ccc(CN(C)CC(O)COc2cccc3ccccc23)cc1", "note": "(stereo not drawn)", "Potency": "inconclusive [inhibitor, partial curve, poor fit]"}, {"smiles": "O=C(C1CC1)N1CCCC(c2ccc(Cl)cc2)=N1", "Potency": "inconclusive [inhibitor, single point]"}, {"smiles": "COc1ccccc1CNC(=O)CN1C(=O)NC(C)(c2ccc(C(C)(C)C)cc2)C1=O", "note": "(stereo not drawn)", "Potency": "inconclusive [inhibitor, single point]"}, {"smiles": "O=C(CCc1ccccc1)Nc1ccnn1C1CCN(C/C=C/c2ccccc2)CC1", "Potency": "inconclusive [inhibitor, single point]"}, {"smiles": "c1ccc(Nc2nc3ccccc3[nH]2)nc1", "Potency": "inconclusive [inhibitor, single point]"}, {"smiles": "COc1ccc(-c2cccc(C3CC=CC4C3C(=O)N(Cc3ccccc3)C4c3ccc(C(F)(F)F)cc3)c2)cc1", "note": "(stereo not drawn)", "Potency": "inconclusive [inhibitor, full curve, poor fit]"}, {"smiles": "CC1CCCC(NC(=O)CCCn2ncn3c(cc4occc43)c2=O)C1C", "note": "(stereo not drawn)", "Potency": "inconclusive [inhibitor, partial curve, poor fit]"}, {"smiles": "COc1cc(C)ccc1OCc1cc(C(=O)N2CCCCCC2)no1", "Potency": "inconclusive [inhibitor, single point]"}]}]}
